Test results from US20210340207A1 (Merck Sharp & Dohme, published 2021).

Tests used:
[1] = molecular target: T1, mouse IL-2Rαβγc (on CTLL2-STAT5 reporter cells) (mouse, UniProt P01590 22-268; P16297 27-539; P34902 23-369); assay: cell-based or functional assay
T1 sequence (looked up) 1: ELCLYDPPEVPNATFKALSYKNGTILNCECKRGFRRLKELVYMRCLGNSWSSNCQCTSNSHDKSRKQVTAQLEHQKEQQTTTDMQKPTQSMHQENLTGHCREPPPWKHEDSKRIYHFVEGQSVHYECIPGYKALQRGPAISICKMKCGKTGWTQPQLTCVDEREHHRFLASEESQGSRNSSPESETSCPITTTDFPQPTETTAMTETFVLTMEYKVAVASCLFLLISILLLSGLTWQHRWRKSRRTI
T1 sequence (looked up) 2: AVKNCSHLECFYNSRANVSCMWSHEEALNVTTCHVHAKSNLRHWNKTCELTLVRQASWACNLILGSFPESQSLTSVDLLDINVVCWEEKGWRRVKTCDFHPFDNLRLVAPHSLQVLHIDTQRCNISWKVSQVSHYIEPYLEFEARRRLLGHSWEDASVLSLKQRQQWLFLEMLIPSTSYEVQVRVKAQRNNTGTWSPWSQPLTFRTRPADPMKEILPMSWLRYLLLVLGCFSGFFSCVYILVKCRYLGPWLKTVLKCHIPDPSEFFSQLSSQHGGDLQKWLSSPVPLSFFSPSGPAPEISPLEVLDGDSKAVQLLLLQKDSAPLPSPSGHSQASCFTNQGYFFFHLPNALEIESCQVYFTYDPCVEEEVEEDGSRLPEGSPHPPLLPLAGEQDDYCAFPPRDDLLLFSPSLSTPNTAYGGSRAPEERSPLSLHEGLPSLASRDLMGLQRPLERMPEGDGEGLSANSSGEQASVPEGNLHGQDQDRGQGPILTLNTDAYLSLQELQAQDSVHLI
T1 sequence (looked up) 3: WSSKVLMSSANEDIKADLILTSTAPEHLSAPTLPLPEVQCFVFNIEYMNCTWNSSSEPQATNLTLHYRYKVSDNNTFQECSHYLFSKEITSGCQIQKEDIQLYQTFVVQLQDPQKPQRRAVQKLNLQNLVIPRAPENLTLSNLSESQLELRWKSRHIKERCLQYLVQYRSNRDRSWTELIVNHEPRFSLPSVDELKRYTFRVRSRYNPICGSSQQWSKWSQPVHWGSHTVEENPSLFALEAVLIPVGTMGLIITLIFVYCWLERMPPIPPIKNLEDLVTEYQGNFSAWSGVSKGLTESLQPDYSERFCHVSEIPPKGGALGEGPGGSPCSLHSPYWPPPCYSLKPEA

[2] = molecular target: T2, human IL-2Rβγc (on DERL-7 cells, U2OS IL2RB/IL2RG cells, CD25 knockout Kit225-STAT5 cells, primary CD8+ CTLs) (human, UniProt P14784 27-551; P31785 23-369); assay: cell-based or functional assay
T2 sequence (looked up) 1: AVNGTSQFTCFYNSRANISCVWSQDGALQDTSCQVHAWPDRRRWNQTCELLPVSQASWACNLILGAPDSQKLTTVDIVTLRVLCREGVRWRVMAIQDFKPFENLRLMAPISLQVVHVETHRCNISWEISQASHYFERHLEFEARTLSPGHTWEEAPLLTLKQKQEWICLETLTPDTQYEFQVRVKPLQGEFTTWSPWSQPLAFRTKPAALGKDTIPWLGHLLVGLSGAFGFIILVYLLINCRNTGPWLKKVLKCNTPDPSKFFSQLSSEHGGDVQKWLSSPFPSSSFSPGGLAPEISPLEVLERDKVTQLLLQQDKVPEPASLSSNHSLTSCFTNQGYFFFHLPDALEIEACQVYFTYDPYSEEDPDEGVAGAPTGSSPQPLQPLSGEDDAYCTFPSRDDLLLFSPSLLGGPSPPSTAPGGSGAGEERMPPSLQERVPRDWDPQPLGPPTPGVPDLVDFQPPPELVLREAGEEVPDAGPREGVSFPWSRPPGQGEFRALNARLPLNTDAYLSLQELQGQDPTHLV
T2 sequence (looked up) 2: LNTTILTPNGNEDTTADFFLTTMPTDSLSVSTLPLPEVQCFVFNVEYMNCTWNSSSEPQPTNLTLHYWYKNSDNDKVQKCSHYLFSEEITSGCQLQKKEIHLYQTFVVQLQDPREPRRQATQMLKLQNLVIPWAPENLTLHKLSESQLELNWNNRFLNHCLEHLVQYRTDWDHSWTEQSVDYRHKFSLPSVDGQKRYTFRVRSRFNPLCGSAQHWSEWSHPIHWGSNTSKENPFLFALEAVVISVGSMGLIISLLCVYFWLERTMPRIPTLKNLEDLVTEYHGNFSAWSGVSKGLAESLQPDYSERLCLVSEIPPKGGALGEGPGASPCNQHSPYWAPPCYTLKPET

B1: Ald-6HIS (ligand)
chain: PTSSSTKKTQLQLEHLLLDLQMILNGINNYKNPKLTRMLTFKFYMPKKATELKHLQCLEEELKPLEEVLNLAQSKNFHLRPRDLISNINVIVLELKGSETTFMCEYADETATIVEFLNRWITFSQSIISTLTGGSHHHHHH
notes: also called aldesleukin with carboxyl-terminus HIS6-tag linked via a Gly-Gly-Ser linker
STAT5-CTLL2 EC50 [1]: 0.009 nM | STAT5-CTLL2 EC50 Fold Change [1]: 1 fold | U2OS B/BG EC50 Fold Change [2]: 1 fold | U2OS B/BG bridging cell assay EC50 [2]: 0.159 nM
